Source: PubChem BioAssay AID1508624 (National Center for Advancing Translational Sciences (NCATS), 2021)
The campaign covered roughly 48,000 compounds. About 120 (0.25%) were called active. Inconclusive results (about 4%) are left out. Calls follow the shape of the dose curve; as a rule, active = well fitted activation curve with a large enough effect; inconclusive = small, poorly fitted or top-dose-only effect, or another doubt; inactive = no such curve, though single readings can be large or run the other way. Some of the results follow.

Assay: Primary qHTS for Identification of Small Molecule Activators of Huntingtin-Antisense Promoter Activity; also: nearly all actives have a fitted effect of over 55% in size
Conditions: HEK293 HTT-AS promoter firefly luciferase reporter, 24 h; series mostly up to 57.5 µM; activity change, positive = activation: at the top concentration
Procedure, shortened: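 Luminescence was read after Dual-Glo reagent and a 10 min room-temperature incubation. Values were normalized to vehicle (0% activity) and zero RLU (-100% activity). Reporter HEK293 cells had been exposed to compounds (up to 57.5 uM final) for 24 h.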

Activity change, positive = activation, inactive:
CCn1c2c(c(=O)n3ncc(C(=O)Nc4ccc(C(=O)OC)cc4)c13)CN(Cc1ccc(OC)cc1)CC2 8.71%, COc1ccc(CCNC(=O)c2c(O)nc3c(C)cccn3c2=O)cc1OC 18.8%, COc1ccc(NC(=O)c2c(N)c(C(=O)c3ccc(OC)cc3)n3ccccc23)cc1 -7.98%, COc1ccc(N2CCN(C(=O)CSc3nc4ccccc4nc3Cc3ccc(Cl)cc3)CC2)cc1 -30.1%, Cc1c(C(=O)NCCc2ccc(Cl)cc2)cccc1-n1cnc2cccnc21 -13.1%, CCn1c2ccccc2c2cc(CN3CCN(Cc4ccc(OC)c(OC)c4)CC3)ccc21 -31.7%, CCOc1ccc(CC(=O)NCCS(=O)(=O)N2CCN(c3ccc(OC)cc3)CC2)cc1 4.33%, Cc1cc(C)cc(NC(=O)c2sc3nc[nH]c(=O)c3c2C)c1 9.43%, CCOC(=O)Cn1c(=O)n(CC2CCCO2)c2nc(-c3ccccc3Cl)nc(C(N)=O)c21 (stereo not given) -6.02%, CCOC(=O)c1ccc(CN(Cc2ccc(OC)cc2)S(=O)(=O)c2cccc(C(F)(F)F)c2)cc1 -15.2%, O=c1c(N2CCc3ccccc3C2)csc2ccc(F)cc12 21.5%, CCOc1ccc(N(CC)C(=O)c2noc3c2COc2ccc(C)cc2-3)cc1 -26.3%, COc1ccccc1C(=O)Nc1c(C(=O)c2ccccc2)oc2ccccc12 -7.28%, CC1=C(C(=O)Nc2ccccc2C)C(c2cccs2)n2nc(SCc3cc(C)ccc3C)nc2N1 (stereo not given) 21.8%, Cc1ccc(CNC(=O)c2c(-c3ccc(Br)cc3)noc2C)o1 -28.2%, CCOc1ccccc1NC(=O)C1=C(C)Nc2ncnn2C1c1sccc1C (stereo not given) -21.6%, O=C(CCCn1c(=O)c2cccn2c2cccnc21)Nc1ccccc1C(F)(F)F -7.02%, CCOC(=O)c1ccc(Nc2nn3c(=O)c4ccccc4nc3s2)cc1 -2.72%, COc1cc(OC)c(NC(=O)N2CCC(CN3CCCC3)CC2)cc1Cl -10.4%, COc1ccc(OC)c(NC(=O)c2ccc3c(Cl)c4c(nc3c2)CCCC4)c1 -8.28%, CCCCN(C)C(=O)Cn1cnc2sc(C)c(S(=O)(=O)N3CCC(C)CC3)c2c1=O 5.43%, Cc1ccc(CNc2ccc3cc(S(=O)(=O)N4CCCCC4)ccc3n2)cc1 -39.1%, COc1ccccc1Nc1ncnc2scc(-c3ccc(F)cc3)c12 -31.2%, Cc1ccc(CNC(=O)c2ccc(CS(=O)(=O)Cc3ccc(C)cc3)o2)cc1 -31.4%, Cc1nn(-c2ccccc2)c2c1N(CC(=O)N1CCN(c3ccccc3F)CC1)C(=O)CS2 -27%, CCN(CC)c1ccc(C2Nc3ccccc3-c3cc(C)nn32)cc1 (stereo not given) -7.21%, CCCCN(CCCNC(=O)c1cc(Nc2ccccc2OC)nc2ccccc12)c1ccccc1 -28.7%, COc1ccc(CNC(=O)c2cccn2-c2nnc(N3CCCC3)s2)c(OC)c1 -7.25%, COc1ccc(C2(CNC(=O)C(=O)Nc3ccccc3C)CCCC2)cc1OC -16.7%, Cc1ccc(N(Cc2cccs2)C(=O)c2ccco2)cc1 -29.7%, Nc1nn(-c2ccccc2)nc1C(=O)OCc1c(F)cccc1Cl 28.3%, COc1cc(Nc2nc(SCC(=O)c3ccc(Cl)c(Cl)c3)nc3ccccc23)cc(OC)c1 -35.7%, O=C(Nc1ccc2nc3n(c(=O)c2c1)CCCCC3)c1cccc(C(F)(F)F)c1 -56.8%, O=C(CCC1N=C2c3ccccc3N=C(SCC(=O)Nc3ccc(F)cc3)N2C1=O)NCc1ccco1 (stereo not given) -5.77%, CC(C)N(C(=O)Cn1cc(S(=O)(=O)Cc2ccc(Cl)cc2)c2ccccc21)C(C)C -17.5%, COc1ccc(-n2c(SCC(=O)NCc3ccccc3)nc3c([nH]c4ccccc43)c2=O)cc1 -31.6%, COc1ccc(Nc2nn(-c3ccc(OC(F)(F)F)cc3)nc2C(C)=O)cc1 5.89%, Cc1cc(C(=O)NCc2ccccc2)c2c(C)nn(-c3cccc(F)c3)c2n1 -28.8%, COc1ccc(NC(=O)CC2Nc3ccccc3NC2=O)cc1 (stereo not given) 11.7%, O=C(Cn1c(=O)c2cccn2c2ccccc21)NCc1ccccc1F -2.76%, COC(=O)c1ccc(NC(=O)Cn2cnc3c2c(=O)n(C)c(=O)n3C)cc1 -11.9%, Cc1cccc(N(CC(=O)NCCSCc2ccccc2)S(=O)(=O)c2ccccc2)c1C -31.5%, CCc1cccc(C)c1NC(=O)C1CCCN1S(=O)(=O)c1cccc2nsnc12 (stereo not given) -7.83%, Cc1nc(N2CCCC2)c2c(C(=O)N3CCN(c4cc(Cl)ccc4C)CC3)c(C)oc2n1 -44.7%, Cc1ccc(C(=O)c2cn(Cc3ccccc3)c3nc(C)ccc3c2=O)cc1 -10.1%, CCn1c(=O)c(=O)n(CC)c2cc(S(=O)(=O)Nc3ccc(C)cc3)ccc21 -6.21%, Cc1ccc(NC(=O)C2CCCN(S(=O)(=O)c3c(C)noc3C)C2)cc1 (stereo not given) -21.4%, Nc1c(C(=O)Nc2ccccc2)sc2nc3c(cc12)CN(Cc1ccccc1)CC3 -8.55%, Cc1cccc(-n2c(=O)c3c4c(sc3n3c(C)nnc23)CCCC4)c1 0%, COc1ccc(NC(=O)c2oc3ccccc3c2NC(=O)C2CCCCC2)c(OC)c1 -1.42%, CCOc1cc(C#N)c(-n2nnc3c(sc4nc(C)cc(C)c43)c2=O)cc1OCC -10%, CCCCN(C)C(=O)c1ccc2c(c1)N(Cc1cccc(F)c1)C(=O)c1ccccc1S2 -27.1%, CCOC(=O)c1scc(-c2ccc(C)cc2)c1S(=O)(=O)Nc1cc(OC)ccc1OC -30.1%, NS(=O)(=O)c1ccc(C(=O)O)cc1 1.71%, Cc1cc(C)c(/C=C/c2onc(C)c2S(=O)(=O)N2CCC(C(=O)NCCc3ccccc3)CC2)c(C)c1 -4.62%, COc1c(C)cc(Br)cc1C(=O)Nc1ccc(-c2nc3ncccc3o2)cc1 -32.9%, CCOc1ccc(NC(=O)Cn2c(=O)n(-c3cccc(Cl)c3)c(=O)c3c2c2cc(C)ccc2n3C)cc1 -3.41%, COc1cc(NC(=O)c2ccc3oc(=O)c(S(=O)(=O)c4ccccc4)cc3c2)cc(OC)c1 -81.5%, CCOc1cccc(C2c3[nH]c4ccccc4c3CCN2C(=O)CSc2ccccc2)c1 (stereo not given) -26.2%, Cc1cccc(C(=O)N2CCc3cc(CNC(=O)COc4ccc(Cl)cc4)ccc32)c1 4.83%, CC(C)c1ccc(NC(=O)C2CCN(S(=O)(=O)c3cccc4nonc34)CC2)cc1 -14.1%, Cc1ccccc1Nc1c(-c2ccc(Cl)cc2)nc2c(C)cccn12 10.9%, COc1ccc(NC(=O)Cn2c(=O)n(CCc3ccccc3)c(=O)c3c4c(sc32)CCCC4)cc1 -4.68%, Cc1ccc(N2C(=O)CSC23C(=O)N(Cc2ccccc2F)c2ccccc23)cc1F (stereo not given) -33.2%, CCOC(=O)c1c(NC(=O)c2nc(SCC)ncc2Cl)sc2c1CCCC2 26.2%, COc1cc2c(=O)c(C(=O)c3ccc(C)c(C)c3)cn(Cc3ccc(F)cc3)c2cc1OC -3.71%, CCOc1ccccc1NC(=O)c1ccc2c(c1)CCN2S(=O)(=O)c1ccc(C)cc1 7.51%, Cc1ccccc1NC(=O)CSc1cn(CC(=O)N2CCCCCC2)c2ccccc12 -29.3%, Cc1nc(SCC(=O)Nc2ccccc2C)cc(-c2ccccc2)n1 -8.45%, CCSc1nnc2c(n1)OC(c1cc(OC)c(OC)c(OC)c1)Nc1ccccc1-2 (stereo not given) -0.87% [at 11.5 µM, percent change from vehicle, -100% = no light], CCOc1cc(CNC(=O)Cn2c(=O)c3cccn3c3ccc(F)cc32)cc(OCC)c1OCC -14.4%, CCOC(=O)c1c(C)[nH]c(C)c1S(=O)(=O)NCC(=O)Nc1ccc(C)c(N(C)C)c1 12.4%, COc1cc(OC)c(NC(=O)c2cc3c(=O)oc4ccc(C)cc4c3s2)cc1Cl -9.31%, Cc1cc(NC(=O)c2cc(-c3ccc(Cl)cc3)on2)n(-c2ccccc2)n1 -7.36%, COc1ccc(CNC(=O)Cc2ccc(NC(=O)N3CCSc4ncccc43)cc2)cc1OC -18.4%, O=C(NCCc1ccccc1)C(=O)NCC(c1ccco1)S(=O)(=O)c1cccs1 (stereo not given) -2.34%, COc1ccc(-c2nc(CSc3nncn4c3cc3oc(C)cc34)c(C)o2)cc1 1.41%, Cc1ccccc1NC(=O)c1ccc(F)c(S(=O)(=O)N2CCN(c3ccccc3F)CC2)c1 -41.9%, COc1ccc(OC)c(CCNC(=O)c2ccc3c(c2)c(C)c(C)n3Cc2ccccc2)c1 -28.8%, COc1cc(NC(=O)CN2C(=O)c3ccccc3Sc3ccc(C(=O)N4CCCC4)cc32)cc(OC)c1 -22%, CCOC(=O)c1ccccc1NC(=O)CN1CCCN(Cc2cc(C)ccc2C)S1(=O)=O -35%, CCOC(=O)c1[nH]c2ccccc2c1NC(=O)c1ccccc1F -22.4%, Cc1oc2ncnc(N3CCCCC3)c2c1C(=O)NCC1CCN(Cc2cccc(F)c2)CC1 4.47%, CCN1CCN(CCCNC(=O)CS(=O)(=O)Cc2nc(-c3cccc(OC)c3)oc2C)CC1 -9.96%, CCC(CC)c1nn2c(=O)cc(COc3ccc(NC(=O)c4ccccc4C)cc3)nc2s1 -26.8%, COc1cc(NS(=O)(=O)c2ccc(NC(=O)c3cccc(F)c3)cc2)nc(OC)n1 -17.8%, CCC1CN(S(=O)(=O)c2cc(-c3cc(C)no3)ccc2C)c2cc(Cl)ccc2O1 (stereo not given) -10.5%, COc1cc(NC(=O)CC2C(=O)OCCN2Cc2ccccc2)cc(OC)c1 (stereo not given) -25.9%, CCCc1nn2c(=O)cc(COC(=O)c3cccc(NC(=O)c4cccs4)c3)nc2s1 -7.04%, COc1ccc(C(=O)NCC(c2cccnc2)N2CCN(c3ccccc3)CC2)cc1 (stereo not given) -23.7%, CCc1cccc(C)c1NC(=O)CCS(=O)(=O)c1cc(Br)cc2c1N(C(=O)C1CC1)CC2 -19.1%, COc1cccc(Cn2c(=O)cc(C)c3c(C)nn(C)c32)c1 -30.6%, Cc1c(C(=O)NCc2ccc(Cl)cc2)sc2nc3n(c(=O)c12)CCCCC3 -10.9%, COc1ccc(S(=O)Cc2ccc(C(=O)N3CCN(c4cccc(C)c4C)CC3)o2)cc1 (stereo not given) -39.6%, CCc1nn2c(-c3ccccc3OC)ccnc2c1-c1ccccc1 -18%
